Laboratory results from the supplement of paper PMC12217912.
The list shows a part of the results. The full chains were built here from the parent and the listed change. Values near 0.05 are background.

B1: TEV protease; numbered along this chain (parent)
chain: MGESLFKGPRDYNPISSSICHLTNESDGHTTSLYGIGFGPFIITNKHLFRRNNGTLVVQSLHGVFKVKDTTTLQQHLVDGRDMIIIRMPKDFPPFPQKLKFREPQREERICLVTTNFQTKSMSSMVSDTSCTFPSGDGIFWKHWIQTKDGQCGSPLVSTRDGFIVGIHSASNFTNTNNYFTSVPKNFMELLTNQEAQQWVSGWRLNADSVLWGGHKVFMVKPEEPFQPVKEATQL

Variants of: B1
Assay: raw area under fraction-flipped curve 0-4 h after induction (AUC4h, not background-subtracted), DNA-recorder readout of cleavage of the substrate (dimensionless); higher = more cleavage of the substrate by the protease variant
Settings: temperature: 34 °C; time window: 0-4 h after rhamnose induction
Description: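 In vivo DNA recorder in E. coli TOP10(DE3) ΔrhaA at 34 °C. Each TEVp single-site mutant (parent TEVp 0) is paired with a single-site variant of the 7-mer TEVs (canonical ENLYFQ|S). The substrate sits between flexible linkers in a Bxb1-sfGFP-TEVs-SsrA fusion, so cleavage stabilises Bxb1 and speeds flipping of a recombination array, read by NGS. The value is the raw area under the fraction-flipped curve over 0-4 h after rhamnose induction (AUC4h), with ≥20 reads per time point. It is not background-subtracted; inactive controls average about 0.047.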
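Note: Bxb1 expression induced with 0.2% (w/v) L-rhamnose at OD600 near 0.5, cultures sampled hourly, flipped fraction per protease–substrate barcode pair counted by paired-end Illumina sequencing.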

Row | Variant | area with substrate ENLAFQS | area with substrate ENLCFQS | area with substrate ENLDFQS | area with substrate ENLGFQS | area with substrate ENLHFQS | area with substrate ENLLFQS | area with substrate ENLPFQS | area with substrate ENLQFQS | area with substrate ENLRFQS | area with substrate ENLTFQS | area with substrate ENLWFQS | area with substrate ENLKFQS | area with substrate ENLNFQS | area with substrate ENLIFQS | area with substrate ENLSFQS | area with substrate ENLFFQS | area with substrate ENLEFQS | area with substrate ENLVFQS | area with substrate ENLMFQS
1 | MGESLFKGPRDYNPISSSICHLTNESDGHTTSLYGIGFGPFIITNKHLFRRNNGTLVVQSLHGVFKVKDTTTLQQHLVDGRDMIIIRMPKDFPPFPQKLKFREPQREKRICLVTTNFQTKSMSSMVSDTSCTFPSGDGIFWKHWIQTKDGQCGSPLVSTRDGFIVGIHSASNFTNTNNYFTSVPKNFMELLTNQEAQQWVSGWRLNADSVLWGGHKVFMVKPEEPFQPVKEATQL [E108K] | 0.0619 | 0.0681 | 0.0765 | 0.0641 | 0.0638 | 0.0654 | 0.0509 | 0.0279 | 0.0631 | 0.0613 | 0.058 |  |  |  |  |  |  |  | 
2 | MGESLFKGPRDYNPISSSICHLTNESDGHTTSLYGIGFGPFIITNKHLFRRNNGTLVVQSLHGVFKVKDTTTLQQHLVDGRDMIIIRMPKDFPPFPQKLKFREPQRERRICLVTTNFQTKSMSSMVSDTSCTFPSGDGIFWKHWIQTKDGQCGSPLVSTRDGFIVGIHSASNFTNTNNYFTSVPKNFMELLTNQEAQQWVSGWRLNADSVLWGGHKVFMVKPEEPFQPVKEATQL [E108R] | 0.0419 |  | 0.0553 |  | 0.06 | 0.0598 |  | 0.0544 | 0.0649 |  | 0.0696 | 0.0469 | 0.0545 |  |  |  |  |  | 
3 | MGESLFKGPRDYNPISSSICHLTNESDGHTTSLYGIGFGPFIITNKHLFRRNNGTLVVQSLHGVFKVKDTTTLQQHLVDGRDMIIIRMPKDFPPFPQKLKFREPQREEDICLVTTNFQTKSMSSMVSDTSCTFPSGDGIFWKHWIQTKDGQCGSPLVSTRDGFIVGIHSASNFTNTNNYFTSVPKNFMELLTNQEAQQWVSGWRLNADSVLWGGHKVFMVKPEEPFQPVKEATQL [R109D] | 0.0687 | 0.0686 | 0.0594 | 0.0687 |  |  | 0.0382 |  | 0.0698 |  |  | 0.0805 |  | 0.0813 | 0.0542 |  |  |  | 
4 | MGESLFKGPRDYNPISSSICHLTNESDGHTTSLYGIGFGPFIITNKHLFRRNNGTLVVQSLHGVFKVKDTTTLQQHLVDGRDMIIIRMPKDFPPFPQKLKFREPQREERWCLVTTNFQTKSMSSMVSDTSCTFPSGDGIFWKHWIQTKDGQCGSPLVSTRDGFIVGIHSASNFTNTNNYFTSVPKNFMELLTNQEAQQWVSGWRLNADSVLWGGHKVFMVKPEEPFQPVKEATQL [I110W] | 0.0546 | 0.0676 | 0.0638 |  |  |  |  |  |  |  | 0.0419 |  |  |  | 0.0602 | 0.0536 |  |  | 
5 | MGESLFKGPRDYNPISSSICHLTNESDGHTTSLYGIGFGPFIITNKHLFRRNNGTLVVQSLHGVFKVKDTTTLQQHLVDGRDMIIIRMPKDFPPFPQKLKFREPQREERICLVGTNFQTKSMSSMVSDTSCTFPSGDGIFWKHWIQTKDGQCGSPLVSTRDGFIVGIHSASNFTNTNNYFTSVPKNFMELLTNQEAQQWVSGWRLNADSVLWGGHKVFMVKPEEPFQPVKEATQL [T114G] | 0.0627 | 0.078 | 0.0901 |  |  | 0.0607 | 0.0814 |  |  |  | 0.0674 | 0.0615 | 0.0538 | 0.117 | 0.0608 | 0.122 | 0.0686 | 0.0762 | 
6 | MGESLFKGPRDYNPISSSICHLTNESDGHTTSLYGIGFGPFIITNKHLFRRNNGTLVVQSLHGVFKVKDTTTLQQHLVDGRDMIIIRMPKDFPPFPQKLKFREPQREERICLVTTNIQTKSMSSMVSDTSCTFPSGDGIFWKHWIQTKDGQCGSPLVSTRDGFIVGIHSASNFTNTNNYFTSVPKNFMELLTNQEAQQWVSGWRLNADSVLWGGHKVFMVKPEEPFQPVKEATQL [F117I] | 0.0698 |  | 0.0564 |  |  |  | 0.0701 | 0.0484 |  |  | 0.066 | 0.0709 | 0.07 | 0.071 | 0.0756 | 0.0806 |  | 0.0841 | 0.0642
7 | MGESLFKGPRDYNPISSSICHLTNESDGHTTSLYGIGFGPFIITNKHLFRRNNGTLVVQSLHGVFKVKDTTTLQQHLVDGRDMIIIRMPKDFPPFPQKLKFREPQREERICLVTTNFETKSMSSMVSDTSCTFPSGDGIFWKHWIQTKDGQCGSPLVSTRDGFIVGIHSASNFTNTNNYFTSVPKNFMELLTNQEAQQWVSGWRLNADSVLWGGHKVFMVKPEEPFQPVKEATQL [Q118E] | 0.0688 | 0.0813 | 0.0666 |  |  |  | 0.0718 |  | 0.0834 |  |  | 0.0755 |  |  | 0.0767 | 0.0574 | 0.0536 |  | 
8 | MGESLFKGPRDYNPISSSICHLTNESDGHTTSLYGIGFGPFIITNKHLFRRNNGTLVVQSLHGVFKVKDTTTLQQHLVDGRDMIIIRMPKDFPPFPQKLKFREPQREERICLVTTNFQNKSMSSMVSDTSCTFPSGDGIFWKHWIQTKDGQCGSPLVSTRDGFIVGIHSASNFTNTNNYFTSVPKNFMELLTNQEAQQWVSGWRLNADSVLWGGHKVFMVKPEEPFQPVKEATQL [T119N] | 0.0695 |  | 0.0571 |  |  |  | 0.0516 | 0.0744 |  |  | 0.0764 | 0.082 |  |  | 0.0358 | 0.0958 | 0.0821 | 0.0985 | 
9 | MGESLFKGPRDYNPISSSICHLTNESDGHTTSLYGIGFGPFIITNKHLFRRNNGTLVVQSLHGVFKVKDTTTLQQHLVDGRDMIIIRMPKDFPPFPQKLKFREPQREERICLVTTNFQTKSMLSMVSDTSCTFPSGDGIFWKHWIQTKDGQCGSPLVSTRDGFIVGIHSASNFTNTNNYFTSVPKNFMELLTNQEAQQWVSGWRLNADSVLWGGHKVFMVKPEEPFQPVKEATQL [S123L] | 0.0825 | 0.0911 | 0.0673 |  | 0.0707 | 0.0745 | 0.0711 | 0.0638 | 0.0897 |  |  | 0.0732 | 0.0557 |  | 0.0678 | 0.087 | 0.0563 |  | 
10 | MGESLFKGPRDYNPISSSICHLTNESDGHTTSLYGIGFGPFIITNKHLFRRNNGTLVVQSLHGVFKVKDTTTLQQHLVDGRDMIIIRMPKDFPPFPQKLKFREPQREERICLVTTNFQTKSMSSFVSDTSCTFPSGDGIFWKHWIQTKDGQCGSPLVSTRDGFIVGIHSASNFTNTNNYFTSVPKNFMELLTNQEAQQWVSGWRLNADSVLWGGHKVFMVKPEEPFQPVKEATQL [M125F] | 0.0737 |  |  |  | 0.0589 | 0.0747 |  | 0.0697 | 0.0772 |  |  | 0.0658 | 0.0641 | 0.0353 |  | 0.0715 |  |  | 
